This note sets out measurements from PMC6919601, “Identification of Plasmodium dipeptidyl aminopeptidase allosteric inhibitors by high throughput screening” (PLoS ONE, 2019).

The campaign covered roughly 110,000 compounds. About 230 (0.21%) showed an effect of 50% or more. This is one part of the list.
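Further: 30 min substrate incubation versus DMSO and 10 µM JCP410 controls.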

Chain of DPAP1 (Q8IIJ9 whole entry, looked up): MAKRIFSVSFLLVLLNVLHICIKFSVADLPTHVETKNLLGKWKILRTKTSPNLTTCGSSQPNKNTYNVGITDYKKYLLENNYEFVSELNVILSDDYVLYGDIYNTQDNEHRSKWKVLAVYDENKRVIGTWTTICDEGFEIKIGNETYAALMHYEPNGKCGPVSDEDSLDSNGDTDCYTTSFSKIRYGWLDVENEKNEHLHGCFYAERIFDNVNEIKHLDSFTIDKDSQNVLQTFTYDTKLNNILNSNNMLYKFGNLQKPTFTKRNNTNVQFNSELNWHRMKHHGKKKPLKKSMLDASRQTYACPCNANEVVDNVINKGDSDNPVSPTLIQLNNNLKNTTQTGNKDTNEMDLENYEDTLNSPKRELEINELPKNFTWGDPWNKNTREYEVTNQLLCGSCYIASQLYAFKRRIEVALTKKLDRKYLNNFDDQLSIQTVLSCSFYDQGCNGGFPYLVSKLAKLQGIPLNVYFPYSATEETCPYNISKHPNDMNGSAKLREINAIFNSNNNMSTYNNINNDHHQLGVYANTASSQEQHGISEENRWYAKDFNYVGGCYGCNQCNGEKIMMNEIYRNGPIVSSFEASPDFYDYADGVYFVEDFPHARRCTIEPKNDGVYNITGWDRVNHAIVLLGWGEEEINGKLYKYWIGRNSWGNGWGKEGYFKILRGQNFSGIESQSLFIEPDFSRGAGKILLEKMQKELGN

The assay concerns the target DPAP1 (Plasmodium falciparum, UniProt Q8IIJ9). The assay is described as follows: primary screen, percent inhibition; read by cleavage of a fluorogenic dipeptide substrate; higher = more effect of the substance. More on the design: species or system P. falciparum D10 trophozoite lysates; single well.
Take `Cc1nc2c3cccnc3nn2c(C)c1CCC(=O)NCCc1ccco1`: the “% Inhibition @ 10 uM” value was -1.7%.
As for `O=C(Nc1ncccc1Cl)C1CC2CCC1C2` (stereo not shown), the “% Inhibition @ 10 uM” value is given as -1.88%.
With `CCCCn1c(=O)c(C(=O)Nc2cccc(C(F)(F)F)c2)c(O)c2ccccc21` the figure was -7.9%.
Turning to `O=C(NCCn1ccc2ccccc21)C(c1ccccc1)c1ccccc1`, the “% Inhibition @ 10 uM” value turned out to be 4.78%.
On to `Cc1ccc(-c2[nH]nc3c2C(c2cccs2)C2=C(O)CCCC2=N3)cc1` (stereo not shown), for which the “% Inhibition @ 10 uM” value was 2.97%.
With `O=c1[nH]c(=O)n(Cc2ccco2)c2c1C(C(F)(F)F)(C(F)(F)F)NC(CCC1CCCCC1)=N2` the figure was -1.18%; with `CCCN(CCO)Cc1c(OC)ccc2ccccc12`, -7.34%.
On to `COc1ccc(N2CCN(Cc3c[nH]c4ccccc34)CC2)cc1`, for which the “% Inhibition @ 10 uM” value was -1.07%.
Regarding `Cc1ccccc1Cn1c(C(=O)O)c(CNCCc2ccccc2Cl)c2ccccc21`, the “% Inhibition @ 10 uM” value is reported as -4.61%.
With `CCS(=O)(=O)c1nc(S(=O)(=O)c2ccc(C)cc2)c(N2CCC(C)CC2)s1` the figure was -2.25%.
For `Cc1ccc(C)c(S(=O)(=O)N2CCC(C)CC2)c1`, the “% Inhibition @ 10 uM” value worked out at 0.565%.
Consider `CCN(CC)CCNC(=O)c1cc2c(-c3ccc(Cl)cc3)nn(C)c2s1`, for which the “% Inhibition @ 10 uM” value is -11.3%.
`Oc1[nH]c2ccccc2c1/C=N/Cc1ccc(F)cc1`: the “% Inhibition @ 10 uM” value was -1.62%.
For `Cc1cc(C)nc(N2CCN(c3ncnc4c3cnn4-c3ccccc3)CC2)n1` the value was 10.9%; for `Cc1n[nH]c2c1C(c1c(C)nn(C)c1C)C(C#N)=C(N)O2` (stereo not shown), -4.28%; for `COc1ccccc1C1(c2ccccc2OC)c2ccccc2Nc2ccccc21`, -4.21%.
With `CCN(CCN(C)C)Cc1c(F)cccc1Cl` the figure was -2.34%; with `Cc1nc2ccc(S(=O)(=O)NCC(=O)NC(C)c3ccccc3)cc2s1` (stereo not shown), 2.37%; with `Cc1ccc(NC(=O)c2cc3c(C)nn(-c4ccccc4)c3s2)c(C)c1`, -1.75%.
`CCc1cccc(C)c1NC(=O)c1ccccc1Br`: the “% Inhibition @ 10 uM” value is on record as -4.4%.
With `COCCNC(=O)Cn1ncc2c3ccccc3n(Cc3cc(C)ccc3C)c2c1=O`, the “% Inhibition @ 10 uM” value was found to be 4.95%.
With `CCCC(=O)c1c(NCCc2ccccc2)cc(C)oc1=O`, the “% Inhibition @ 10 uM” value was found to be 2.47%.
Take `Cc1ccc(C)c(N(CC(=O)Nc2ccc(Cl)cc2)S(C)(=O)=O)c1`: the “% Inhibition @ 10 uM” value came out at 0.00477%.
For `O=C(Nc1cccc(F)c1)Nc1ccc(Cl)c(Cl)c1`, the “% Inhibition @ 10 uM” value amounted to 3%.
As for `NS(=O)(=O)c1ccc(NC(=O)C2CC3CCC2C3)cc1` (stereo not shown), the “% Inhibition @ 10 uM” value is -2.65%.
With `CCO/C(O)=C1\C(C)=NC(=S)NC1c1ccc(O)c(OC)c1` (stereo not shown) the figure was 0.736%; with `Cc1cccnc1NC(=O)c1c(O)nc2ccccc2c1O`, 0.736%.
With `Cc1c(CNC2CCC(C)CC2)c(C(=O)O)c(C)n1Cc1cccc(Cl)c1` (stereo not shown), the “% Inhibition @ 10 uM” value is reported as 1.41%.
As for `Cc1ccc(-n2c(C)cn3c4c(=O)n(C)c(=O)n(C)c4nc23)cc1`, the “% Inhibition @ 10 uM” value was 3.21%.
On to `CCN1C(=O)/C(=C/c2cc(C)n(C)c2C)S/C1=N/c1ccc(OC)cc1`, for which the “% Inhibition @ 10 uM” value is reported as -1.11%.
With `Cc1nc(C)c(C(=O)O)c(-c2ccco2)c1C(=O)O`, the “% Inhibition @ 10 uM” value came to 5.66%.
Turning to `CC1CCN(CCCCCOc2cccc(Cl)c2)CC1`, the “% Inhibition @ 10 uM” value is recorded as -2.98%.
Take `CCOC(=O)c1nnn(-c2nonc2N)c1CSc1nc2cccnc2[nH]1`: the “% Inhibition @ 10 uM” value worked out at 2.18%.
With `COc1ccc(N(C(C)C(=O)Nc2ccc(C)cc2C)S(C)(=O)=O)cc1` (stereo not shown), the “% Inhibition @ 10 uM” value was 0.389%.
For the compound `Cc1ccc(NC(=O)c2sc3nc4ccccc4cc3c2N)cc1`, the “% Inhibition @ 10 uM” value is reported as 5.66%.
With `COc1ccc(C(=O)CC(=O)C(=O)NCCc2ccc(Cl)cc2)cc1`, the “% Inhibition @ 10 uM” value is -1.03%.
For `Cc1cc(/C=C2/NC(=O)N(c3ccc(Cl)cc3)C2=O)c(C)n1-c1ccncc1` the value was -1.24%.
For the compound `COc1ccc(CNC(=O)CCCn2nc(C)c3sc4ccccc4c3c2=O)cc1`, the “% Inhibition @ 10 uM” value was -6.99%.
Take `Cc1ccc(CNC(=O)c2cc(=O)c3cc(Cl)ccc3o2)cc1`: the “% Inhibition @ 10 uM” value was -1.47%.
As to `CC(C)c1ccc(/C=C(/C#N)c2nc(-c3cc4cc(Br)ccc4oc3=O)cs2)cc1`, the “% Inhibition @ 10 uM” value is 0.827%.
For `CCOc1ccccc1N1C(=O)c2ccc(Br)cc2C1=O`, the “% Inhibition @ 10 uM” value is on record as 2.69%.
With `OC(CN1CCCCC1)CN1c2ccccc2Sc2ccccc21` (stereo not shown), the “% Inhibition @ 10 uM” value was -7.01%.
For `COc1cccc(NC(=O)C2=C(C)NC(=O)NC2c2ccc(Cl)cc2)c1` (stereo not shown) the value was -4.39%.
For `O=C1S/C(=C\c2ccccc2O)C(=O)N1Cc1ccc(F)cc1`, the “% Inhibition @ 10 uM” value turned out to be 21.2%.
Take `C=CCC1Cc2ccccc2C(CC=C)N1` (stereo not shown): the “% Inhibition @ 10 uM” value is listed as 3.46%.
For the compound `COc1ccc(NC(=O)COc2ccccc2)c([N+](=O)[O-])c1`, the “% Inhibition @ 10 uM” value was 3.05%.
For the compound `C=CC1CN2CCC1CC2C(OC(=O)c1ccccc1)c1ccnc2ccccc12` (stereo not shown), the “% Inhibition @ 10 uM” value came to 3.34%.
With `CCCCn1c(C(C)NC(=O)COc2ccccc2)nc2ccccc21` (stereo not shown), the “% Inhibition @ 10 uM” value was determined as 13.2%.
Consider `O=C(/C=C/c1ccc2c(c1)OCO2)Nc1ccc2c(c1)OCO2`, for which the “% Inhibition @ 10 uM” value amounted to 3.47%.
With `Cc1cc(C)c(C(=O)/C=C/c2ccc(Cl)cc2)c(O)n1` the figure was -5.32%; with `CC(C)COc1ccc(C(=O)N(Cc2ccccc2)c2ccccn2)cc1`, 0.366%.
For `Cc1ccc(CCn2c3c(c4ccccc42)CN(C)CC3)cn1` the value was 0.708%; for `CCOc1ccc2nc(Nc3nc(C)c(C)c(O)n3)nc(C)c2c1`, 5.66%; for `COc1ccccc1-n1nnc(-c2nc(-c3ccc4c(c3)OCO4)no2)c1N`, -2.15%.
For `Cc1cccc(N(CC(=O)N2CCCCCC2)S(=O)(=O)c2ccccc2)c1` the value was -0.496%.
`Cc1c(C(=O)/C=C/c2ccccc2F)c2cc(O)ccc2n1C`: the “% Inhibition @ 10 uM” value was 0.78%.
`COCCCNC(=O)c1cc(-c2ccncc2)nc2ccccc12`: the “% Inhibition @ 10 uM” value stood at 1.16%.
Take `Cn1c(CS(=O)(=O)c2ccc(Cl)cc2)c(C#N)c2ccccc21`: the “% Inhibition @ 10 uM” value worked out at 1.01%.
For `Cn1c2c(c(=O)n(C)c1=O)C(c1ccc(C(F)(F)F)cc1)CC(=O)N2` (stereo not shown) the value was -2.05%; for `O=C(Nc1sc2c(c1C(=O)NCC1CCCO1)CCCC2)c1cc(=O)c2cc(Cl)ccc2o1` (stereo not shown), -5.08%; for `O=C(O)[C@H]1CCCC[C@H]1C(=O)NCCNC(=O)[C@@H]1CCCC[C@@H]1C(=O)O`, 2.75%.
With `Cc1ccc2[nH]c3c(c2c1)CCN(C)C3` the figure was -3.15%; with `CCc1ccccc1N(CC(=O)Nc1cccnc1)S(=O)(=O)c1ccc(C)cc1`, 5.66%; with `C=CCn1c(SCCCC)nc(O)c(CC)c1=O`, -0.636%.
